Results are given in words; binding and its absence hold for the method and conditions named. In cells and extracts the contact can be indirect. Some results given as binding are weak or reduced against the parent protein; the word gives no strength. Tags and fused reporters may be left off the sequences shown. Values belong to the binder of their own block, whether it stands above or below them.
Experiments:
[1] = target: GST::Cdc42^V12 (Drosophila) (UniProt P40793); assay: pull-down; GST-fusion protein purified and kept on glutathione Sepharose beads; S2R+ cell lysate added for 1 h at 4°C; washed three times in lysis buffer (50 mM Tris HCl pH 7.5, 150 mM NaCl, 0.5% Triton X-100, 1 mM EDTA); western blot and Coomassie Blue staining; only the target purified
[2] = target: GST::Cdc42^N17 (Drosophila) (UniProt P40793); assay: as above
[3] = target: T1, Par6::Flag (wild type) (Drosophila) (UniProt O97111); assay: co-IP; Par6::Flag immunoprecipitated with anti-FLAG M2 magnetic beads for 1 h at 4°C from lysates of transfected S2R+ cells; washed three times in lysis buffer; endogenous aPKC seen by western blot
T1 sequence: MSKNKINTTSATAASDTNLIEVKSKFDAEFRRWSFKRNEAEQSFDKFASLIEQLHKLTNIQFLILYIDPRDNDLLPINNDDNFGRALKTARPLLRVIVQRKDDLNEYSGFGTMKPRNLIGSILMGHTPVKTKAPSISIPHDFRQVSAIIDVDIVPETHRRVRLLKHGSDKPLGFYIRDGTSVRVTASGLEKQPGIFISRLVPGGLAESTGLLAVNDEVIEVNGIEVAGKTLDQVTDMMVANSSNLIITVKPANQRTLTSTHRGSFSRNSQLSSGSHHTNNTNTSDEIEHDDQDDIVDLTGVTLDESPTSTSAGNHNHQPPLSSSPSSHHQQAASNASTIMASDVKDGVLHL

Chains of the proteins cited; added tags and fusions are not shown. Lines headed by an entry give the natural chain unless they say otherwise; changes in a name come on top. A line that says so, or that is headed by a name, gives the form on record, which may keep a tag or linker.
UniProt P40793: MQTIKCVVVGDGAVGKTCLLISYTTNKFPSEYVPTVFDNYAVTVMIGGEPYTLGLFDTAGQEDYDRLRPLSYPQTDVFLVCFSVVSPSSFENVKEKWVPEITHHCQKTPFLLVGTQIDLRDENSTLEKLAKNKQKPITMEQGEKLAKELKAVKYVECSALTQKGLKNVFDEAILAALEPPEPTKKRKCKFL
GST::Cdc42^V12 (P40793, form named): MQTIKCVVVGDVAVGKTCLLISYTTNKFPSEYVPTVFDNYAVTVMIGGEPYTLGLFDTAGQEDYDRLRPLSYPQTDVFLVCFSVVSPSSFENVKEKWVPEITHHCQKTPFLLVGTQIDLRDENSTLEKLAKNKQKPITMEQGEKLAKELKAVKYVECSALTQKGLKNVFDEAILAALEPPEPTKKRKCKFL
GST::Cdc42^N17 (P40793, form named): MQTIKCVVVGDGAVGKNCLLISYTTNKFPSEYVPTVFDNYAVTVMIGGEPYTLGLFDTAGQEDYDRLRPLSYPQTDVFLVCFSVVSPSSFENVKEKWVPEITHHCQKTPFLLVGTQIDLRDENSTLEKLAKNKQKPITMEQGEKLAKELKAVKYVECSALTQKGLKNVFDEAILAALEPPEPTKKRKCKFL

[4] = target: T2, Par6^Δ139P::Flag (Drosophila) (UniProt O97111); assay: as above
T2 sequence: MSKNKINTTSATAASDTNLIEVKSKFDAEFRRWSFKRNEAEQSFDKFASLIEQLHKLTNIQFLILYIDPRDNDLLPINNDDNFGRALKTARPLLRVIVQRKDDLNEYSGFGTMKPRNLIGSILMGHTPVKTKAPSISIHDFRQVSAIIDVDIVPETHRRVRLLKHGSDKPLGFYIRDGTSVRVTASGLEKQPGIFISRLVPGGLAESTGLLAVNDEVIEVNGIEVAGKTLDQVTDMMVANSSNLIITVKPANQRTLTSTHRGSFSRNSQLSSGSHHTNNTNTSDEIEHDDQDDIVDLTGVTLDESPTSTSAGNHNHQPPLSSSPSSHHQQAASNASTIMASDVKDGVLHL

[5] = target: T3, Par6^KPLG170-173AAAA::Flag (Drosophila) (UniProt O97111); assay: as above
T3 sequence: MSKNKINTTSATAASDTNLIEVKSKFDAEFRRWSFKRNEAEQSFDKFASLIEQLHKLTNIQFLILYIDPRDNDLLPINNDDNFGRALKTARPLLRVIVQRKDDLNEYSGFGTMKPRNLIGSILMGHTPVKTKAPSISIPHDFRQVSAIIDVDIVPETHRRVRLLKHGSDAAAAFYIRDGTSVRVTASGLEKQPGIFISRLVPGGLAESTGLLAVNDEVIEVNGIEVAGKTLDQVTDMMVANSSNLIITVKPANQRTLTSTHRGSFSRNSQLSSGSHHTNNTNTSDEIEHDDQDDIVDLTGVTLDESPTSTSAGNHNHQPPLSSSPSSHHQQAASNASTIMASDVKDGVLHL

[6] = target: T4, Par6^K23A::Flag (Drosophila) (UniProt O97111); assay: as above
T4 sequence: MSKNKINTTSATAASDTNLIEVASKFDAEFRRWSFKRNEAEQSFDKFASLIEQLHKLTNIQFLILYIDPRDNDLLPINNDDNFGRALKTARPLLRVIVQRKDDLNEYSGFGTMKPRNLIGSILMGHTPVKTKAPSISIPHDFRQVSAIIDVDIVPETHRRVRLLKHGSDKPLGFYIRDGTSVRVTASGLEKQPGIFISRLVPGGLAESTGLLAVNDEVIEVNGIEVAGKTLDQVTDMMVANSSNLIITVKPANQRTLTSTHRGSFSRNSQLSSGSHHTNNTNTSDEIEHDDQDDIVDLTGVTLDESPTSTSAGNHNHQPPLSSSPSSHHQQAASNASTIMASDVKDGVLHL

B1: Par6::Flag (wild type) (protein, UniProt O97111 1-351)
chain: MSKNKINTTSATAASDTNLIEVKSKFDAEFRRWSFKRNEAEQSFDKFASLIEQLHKLTNIQFLILYIDPRDNDLLPINNDDNFGRALKTARPLLRVIVQRKDDLNEYSGFGTMKPRNLIGSILMGHTPVKTKAPSISIPHDFRQVSAIIDVDIVPETHRRVRLLKHGSDKPLGFYIRDGTSVRVTASGLEKQPGIFISRLVPGGLAESTGLLAVNDEVIEVNGIEVAGKTLDQVTDMMVANSSNLIITVKPANQRTLTSTHRGSFSRNSQLSSGSHHTNNTNTSDEIEHDDQDDIVDLTGVTLDESPTSTSAGNHNHQPPLSSSPSSHHQQAASNASTIMASDVKDGVLHL
- binding [1]: binds
- binding [2]: no binding

B2: Par6^KPLG170-173AAAA::Flag (protein, UniProt O97111 1-351)
chain: MSKNKINTTSATAASDTNLIEVKSKFDAEFRRWSFKRNEAEQSFDKFASLIEQLHKLTNIQFLILYIDPRDNDLLPINNDDNFGRALKTARPLLRVIVQRKDDLNEYSGFGTMKPRNLIGSILMGHTPVKTKAPSISIPHDFRQVSAIIDVDIVPETHRRVRLLKHGSDAAAAFYIRDGTSVRVTASGLEKQPGIFISRLVPGGLAESTGLLAVNDEVIEVNGIEVAGKTLDQVTDMMVANSSNLIITVKPANQRTLTSTHRGSFSRNSQLSSGSHHTNNTNTSDEIEHDDQDDIVDLTGVTLDESPTSTSAGNHNHQPPLSSSPSSHHQQAASNASTIMASDVKDGVLHL
- binding [1]: binds

B5: aPKC (endogenous) (protein, UniProt A1Z9X0 1-606)
chain: MQKMPSQILNDGSSVSLNSASMNMANTPNSITVKTAYNGQIIITTINKNISYEELCYEIRNICRFPLDQPFTIKWVDEENDPCTISTKMELDEAIRLYEMNFDSQLVIHVFPNVPQAPGLSCDGEDRSIYRRGARRWRKLYRVNGHIFQAKRFNRRAFCAYCQDRIWGLGRQGFKCIQCKLLVHKKCHKLVQKHCTDQPEPLVKERAEESSDPIPVPLPPLPYEAMSGGAEACETHDHAHIVAPPPPEDPLEPGTQRQYSLNDFELIRVIGRGSYAKVLMVELRRTRRIYAMKVIKKALVTDDEDIDWVQTEKHVFETASNHPFLVGLHSCFQTPSRLFFVIEFVRGGDLMYHMQRQRRLPEEHARFYAAEISLALNFLHEKGIIYRDLKLDNVLLDHEGHIKLTDYGMCKEGIRPGDTTSTFCGTPNYIAPEILRGEDYGFSVDWWALGVLLYEMLAGRSPFDLAGASENPDQNTEDYLFQVILEKTIRIPRSLSVRAASVLKGFLNKNPADRLGCHRESAFMDIVSHPFFKNMDWELLERKQVTPPFKPRLDSDRDLANFPPEFTGEAVQLTPDDDHVIDNIDQSEFEGFEYVNPLLMSLEDCV
- binding [3]: binds
- binding [4]: binds
- binding [5]: binds
- binding [6]: no binding

More lines, now with the values ahead:

- binding [1]: binds
B3: Par6^K23A::Flag (protein, UniProt O97111 1-351)
chain: MSKNKINTTSATAASDTNLIEVASKFDAEFRRWSFKRNEAEQSFDKFASLIEQLHKLTNIQFLILYIDPRDNDLLPINNDDNFGRALKTARPLLRVIVQRKDDLNEYSGFGTMKPRNLIGSILMGHTPVKTKAPSISIPHDFRQVSAIIDVDIVPETHRRVRLLKHGSDKPLGFYIRDGTSVRVTASGLEKQPGIFISRLVPGGLAESTGLLAVNDEVIEVNGIEVAGKTLDQVTDMMVANSSNLIITVKPANQRTLTSTHRGSFSRNSQLSSGSHHTNNTNTSDEIEHDDQDDIVDLTGVTLDESPTSTSAGNHNHQPPLSSSPSSHHQQAASNASTIMASDVKDGVLHL

- binding [1]: no binding
B4: Par6^Δ139P::Flag (protein, UniProt O97111 1-351)
chain: MSKNKINTTSATAASDTNLIEVKSKFDAEFRRWSFKRNEAEQSFDKFASLIEQLHKLTNIQFLILYIDPRDNDLLPINNDDNFGRALKTARPLLRVIVQRKDDLNEYSGFGTMKPRNLIGSILMGHTPVKTKAPSISIHDFRQVSAIIDVDIVPETHRRVRLLKHGSDKPLGFYIRDGTSVRVTASGLEKQPGIFISRLVPGGLAESTGLLAVNDEVIEVNGIEVAGKTLDQVTDMMVANSSNLIITVKPANQRTLTSTHRGSFSRNSQLSSGSHHTNNTNTSDEIEHDDQDDIVDLTGVTLDESPTSTSAGNHNHQPPLSSSPSSHHQQAASNASTIMASDVKDGVLHL
